In PubChem BioAssay AID1476 (National Center for Advancing Translational Sciences (NCATS), 2009):
Out of some 200,000 compounds screened, about 4,500 (2.2%) were called active. Inconclusive results, whose numbers are uncertain, are shown with a selection of clear calls. Calls come from the whole dose curve; as a rule, active = well fitted inhibition curve with a large enough effect; inconclusive = small, poorly fitted or top-dose-only effect, or effect the other way; inactive = flat fitted curve, though single readings scatter. Potencies beside an inconclusive call are fits to weak or partial responses and may not hold up.
Note: nearly all actives have a fitted effect of over 40% in size.
Potency is the fitted concentration of half-maximal effect; tags give direction and shape of the fitted curve.
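Throughout, for max response, negative = inhibition: plate controls were enzyme without inhibitor for no effect and buffer without enzyme for full effect.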

These compounds were tested against Cruzipain (Trypanosoma cruzi) (UniProt P25779) (assay: qHTS Assay for Promiscuous and Specific Inhibitors of Cruzain (without detergent)). Conditions: purified cruzain, Z-FR-AMC fluorescence, no detergent.
Sequence of UniProt P25779 (P25779 whole entry, looked up): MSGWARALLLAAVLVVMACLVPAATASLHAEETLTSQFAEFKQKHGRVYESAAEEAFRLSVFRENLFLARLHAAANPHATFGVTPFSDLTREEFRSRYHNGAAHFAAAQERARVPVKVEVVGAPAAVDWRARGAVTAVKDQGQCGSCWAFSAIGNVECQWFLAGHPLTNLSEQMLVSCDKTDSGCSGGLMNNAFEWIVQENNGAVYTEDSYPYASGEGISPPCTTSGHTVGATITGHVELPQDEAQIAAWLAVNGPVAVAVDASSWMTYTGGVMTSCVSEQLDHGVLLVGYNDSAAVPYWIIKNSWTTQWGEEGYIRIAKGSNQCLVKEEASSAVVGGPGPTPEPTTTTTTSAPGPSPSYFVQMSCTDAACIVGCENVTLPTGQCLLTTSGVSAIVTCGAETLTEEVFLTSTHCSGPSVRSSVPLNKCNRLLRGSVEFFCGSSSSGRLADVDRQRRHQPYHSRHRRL
How it was run: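 Detergent-free condition (0.00005% Triton X-100) in acetate buffer pH 5.5 with DTT. 1.5 nM enzyme and compound were pre-mixed 15 min, then 2 uM Z-FR-AMC substrate added; reaction progress from fluorescence change between first and third reads (60 s).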
With `CCn1c(COc2ccccc2C)nnc1SCC(=O)CC(=O)Nc1ccccc1OC` the Potency was inconclusive: 39.8 µM [activator, single point].
In the case of `O=C(/C(=C/c1ccc(Cl)cc1)c1nc2ccccc2[nH]1)c1cccs1`, the Potency is reported as inconclusive: 5.01 µM [inhibitor, partial curve].
`COC(=O)c1cc2sc(Cl)cc2n1CC(=O)Nc1cc(C)cc(C)c1` was tested, and the max response, negative = inhibition was inactive: -11.7%.
`C/C(=N\NC(=O)c1cc(Cl)ccc1O)c1ccc(Br)s1` was tested, and the Potency was active: 10 µM.
For `CN(C(=O)COC(=O)c1cccnc1Nc1cccc(C(F)(F)F)c1)C1CCS(=O)(=O)C1` (stereo unspecified), the Potency was inconclusive: 31.6 µM [activator, single point].
For `COc1ccc(NCC(=O)Nc2ccc(Cl)cc2C)c(OC)c1`, the Potency was inconclusive: 31.6 µM [inhibitor, single point].
In the case of `CCOC(=O)N1CCN(c2nc(SC)nc3sc4c(c23)CC(C)(C)OC4)CC1`, the Potency is reported as inconclusive: 39.8 µM [activator, single point].
With `Cc1ccc(-c2nc3sccn3c2Nc2ccc(C)c(C)c2)cc1` the Potency was inconclusive: 39.8 µM [inhibitor, single point].
`C/C1=C2N=C(/C=C3N=C(/C(C)=C4\[N-]C(C)(C5N=C1C(C)(CCC(=O)NCC(C)OP(=O)([O-])O[C@H]1C(O)C(n6cnc7cc(C)c(C)cc76)O[C@@H]1CO)C5CC(N)=O)C(C)(CC(N)=O)C4CCC(N)=O)C(C)(CC(N)=O)C\3CCC(N)=O)C(C)(C)C/2CCC(N)=O.[CH2-]C1OC(n2cnc3c(N)ncnc32)C(O)C1O.[Co]` (stereo partly specified) was tested, and the Potency was active: 12.6 µM.
For `COc1cccc(N2CCN(C(=O)c3nn(C)c4c3CSc3ccc(C)cc3-4)CC2)c1`, the Potency was inconclusive: 25.1 µM [activator, partial curve, poor fit].
With `CC1CCN(c2nc3ccc(C(=O)N4CCN(c5ccccc5)CC4)cc3s2)CC1` the max response, negative = inhibition was inactive: -2.72%.
`O=C(Cn1nnc(-c2cccc(C(F)(F)F)c2)n1)NC(=O)NCc1ccco1` was tested, and the Potency was active: 15.8 µM.
With `O=C(CC(=O)NC1CCCCC1)N/N=C/c1ccccc1Cl` the Potency was inconclusive: 39.8 µM [inhibitor, single point].
With `Cc1ccc(CNC(=O)Cc2ccc(-n3cccc3)cc2)cc1` the Potency was inconclusive: 25.1 µM [inhibitor, single point].
`COc1ccc(CCNC(=O)C(C)n2c(=O)cc(-c3ccccc3)c3c(C)nn(C)c32)cc1OC` (stereo unspecified) was tested, and the Potency was inconclusive: 39.8 µM [activator, single point].
In the case of `COCCn1c(SCC(=O)Nc2cccc(C(=O)OC)c2)nc2ccccc2c1=O`, the Potency is reported as inconclusive: 39.8 µM [activator, single point].
